Source: the supplement of paper PMC11876631
± gives the standard deviation of the averaged measurements. Laboratory Escherichia coli strains with one amino-acid change in an essential protein, pooled on minimal glucose agar with carbenicillin or gentamicin at twice the control MIC (plus kanamycin and chloramphenicol for the plasmids), 48 h. Fold change of barcode share against drug-free plates; higher = less susceptible. Active = above 20 in both replicates (the paper's putatively resistant). '<' = one read or none on drug, '>' = one read or none on a drug-free plate. Shares are relative, so most strains fall below 1 when a few take over. Listed are strains with at least 15 reads on both drug-free plates, and hits; most hits rest on fewer reference reads. Replicate rank correlation about 0.5. Edits are read from barcodes.

B1: pabA; numbered along this chain (parent)
chain: MILLIDNYDSFTWNLYQYFCELGADVLVKRNDALTLADIDALKPQKIVISPGPCTPDEAGISLDVIRHYAGRLPILGVCLGHQAMAQAFGGKVVRAAKVMHGKTSPITHNGEGVFRGLANPLTVTRYHSLVVEPDSLPACFDVTAWSETREIMGIRHRQWDLEGVQFHPESILSEQGHQLLANFLHR
B2: pdxA; a variant is named by its letters at X, in order (parent)
chain: MVKTQRVVITPGEPAGIGPDLXVQLAQREWPVEXXXCADATLLTNRAAMLGLPLTLRPYSPNSPAQPQTAGTLTLLPVALRAPVTAGQLAVENGHYVVETXARACDGCLNGEFAALITGPVHKGVINDAGIPFTGHTEFFEERSQAKKVVMXLATEELRVALATTHLPLRDIADAITPALLHEVIAILHHDLRTKFGIAEPRILVCGLNPHAGEGGHMGTEEIDTIIPVLNELRAQGMKLNGPLPADTLFQPKYLDNADAVLAMYHDQGLPVLKYQGFGRGVNITLGLPFIRTSVDHGTALELAGRGKADVGSFITALNLAIKMIVNTQ
B3: rpoH; a variant is named by its letters at X, in order (parent)
chain: MTDKMQSLALAPVGNLDSYIRAANAWPMLSADEERALAEKLHYHGDLEAAKTLIXSHLRFVVHIARNYAGYGLPQADLIQEGNIGLMKAVRRFNPEVGVRLXSFAVHWIKAEIHEYVLRNWRIVKVATTKAQRKLFFNLRKTKQRLGWFNQDEVEMVARELGVTSKDVREMESRMAAQDMTFDLSSDDDSDSQPMAPVLYLQDKSSNFADGIEDDNWEEQAANRLTDAMQGLDERSQDIIRARWLDEDNKSTLQELADRYGVSAERVRQLEKNAMKKXRAAIEA

Variants of: B1
Test: barcode share on antibiotic plates over drug-free plates; higher = less susceptible
Details: with Escherichia coli (laboratory strain); antibiotic: carbenicillin; 2× MIC (3.1 µg/mL)
Method: (§1)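 A pool of E. coli strains, each edited to carry one amino-acid change in an essential protein, was grown for 48 h on minimal glucose agar with or without antibiotic; strain barcodes were sequenced; mean of two replicates.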
With L118W the “fold change of barcode share” value was 0.802 ± 0.37.
F141A was tested, and the “fold change of barcode share” value was 1.101 ± 0.0021.
In the case of F141D, the “fold change of barcode share” value is reported as 1.81 ± 0.024.
In the case of F141P, the “fold change of barcode share” value is reported as 1.98 ± 0.17.
With F141Q the “fold change of barcode share” value was 1.56 ± 0.06.
In the case of F141W, the “fold change of barcode share” value is reported as 0.943 ± 0.04.
With V143A the “fold change of barcode share” value was 0.9 ± 0.038.
V143D was tested, and the “fold change of barcode share” value was 0.945 ± 0.15.
V143P was tested, and the “fold change of barcode share” value was 1.097 ± 0.0027.
In the case of V143Q, the “fold change of barcode share” value is reported as 2.37 ± 0.27.
In the case of V143W, the “fold change of barcode share” value is reported as 1.05 ± 0.11.
L181A was tested, and the “fold change of barcode share” value was 0.31 ± 0.071.
With L181D the “fold change of barcode share” value was 1.16 ± 0.065.
L181P was tested, and the “fold change of barcode share” value was 0.719 ± 0.15.

Same assay, conditions: with Escherichia coli (laboratory strain); antibiotic: gentamicin; 2× MIC (MIC 0.45 µg/mL)
For L118W, the “fold change of barcode share” value was < 0.0163.
F141A was tested, and the “fold change of barcode share” value was 0.0358 ± 0.0054.
F141D was tested, and the “fold change of barcode share” value was 0.036 ± 0.0055.
With F141P the “fold change of barcode share” value was 0.0324 ± 0.0044.
F141Q was tested, and the “fold change of barcode share” value was 0.071 ± 0.069.
F141W was tested, and the “fold change of barcode share” value was 0.0211 ± 0.00036.
V143A was tested, and the “fold change of barcode share” value was 0.0198 ± 0.0035.
V143D was tested, and the “fold change of barcode share” value was 0.0189 ± 0.0023.
For V143P, the “fold change of barcode share” value was 0.0158 ± 0.0035.
In the case of V143Q, the “fold change of barcode share” value is reported as 0.0181 ± 0.00098.
For V143W, the “fold change of barcode share” value was 0.0194 ± 0.00066.
L181A was tested, and the “fold change of barcode share” value was 0.00562 ± 0.0014.
With L181D the “fold change of barcode share” value was 0.0305 ± 0.033.
With L181P the “fold change of barcode share” value was 0.0251 ± 0.0075.
For L4D, the “fold change of barcode share” value was < 0.0234.

Variants of: B2
Test: as above
Details: with Escherichia coli (laboratory strain); antibiotic: carbenicillin; 2× MIC (3.1 µg/mL)
Method: as §1
In the case of VAVVLM, the “fold change of barcode share” value is reported as 0.457 ± 0.14.
With VDVVLM the “fold change of barcode share” value was 0.686 ± 0.028.
VLAVLM was tested, and the “fold change of barcode share” value was 0.34 ± 0.22.
With VLDVLM the “fold change of barcode share” value was 0.322 ± 0.15.
VLPVLM was tested, and the “fold change of barcode share” value was 0.408 ± 0.063.
VLQVLM was tested, and the “fold change of barcode share” value was 0.59 ± 0.23.
VLVALM was tested, and the “fold change of barcode share” value was 0.508 ± 0.14.
In the case of VLVDLM, the “fold change of barcode share” value is reported as 0.395 ± 0.13.
For VLVPLM, the “fold change of barcode share” value was 0.601 ± 0.15.
In the case of VLVQLM, the “fold change of barcode share” value is reported as 0.35 ± 0.12.
In the case of VLVVAM, the “fold change of barcode share” value is reported as 0.49 ± 0.15.
With VLVVDM the “fold change of barcode share” value was 0.468 ± 0.092.
With VLVVLA the “fold change of barcode share” value was 0.43 ± 0.043.
VLVVLD was tested, and the “fold change of barcode share” value was 0.455 ± 0.12.
For ALVVLM, the “fold change of barcode share” value was 0.607 ± 0.067.
In the case of WLVVLM, the “fold change of barcode share” value is reported as 0.743 ± 0.21.
In the case of QLVVLM, the “fold change of barcode share” value is reported as 0.425 ± 0.2.
In the case of DLVVLM, the “fold change of barcode share” value is reported as 0.524 ± 0.22.
PLVVLM was tested, and the “fold change of barcode share” value was 0.46 ± 0.1.
For VLVVLM I226A, the “fold change of barcode share” value was 0.499 ± 0.027.
VLVVLM I226Q was tested, and the “fold change of barcode share” value was 0.489 ± 0.26.
With VLVVLM L153Q the “fold change of barcode share” value was 0.427 ± 0.2.
With VLVVLP the “fold change of barcode share” value was 0.585 ± 0.3.
With VLVVLQ the “fold change of barcode share” value was 0.4405 ± 0.002.
With VLVVLW the “fold change of barcode share” value was 0.96785 ± 0.00055.
With VLVVPM the “fold change of barcode share” value was 0.419 ± 0.06.
For VLVVQM, the “fold change of barcode share” value was 0.407 ± 0.18.
In the case of VLVVWM, the “fold change of barcode share” value is reported as 0.517 ± 0.33.
For VLVWLM, the “fold change of barcode share” value was 0.419 ± 0.038.
For VLWVLM, the “fold change of barcode share” value was 0.36 ± 0.14.
With VPVVLM the “fold change of barcode share” value was 0.381 ± 0.18.
In the case of VQVVLM, the “fold change of barcode share” value is reported as 0.359 ± 0.14.
For VWVVLM, the “fold change of barcode share” value was 0.438 ± 0.14.

Same assay, conditions: with Escherichia coli (laboratory strain); antibiotic: gentamicin; 2× MIC (MIC 0.45 µg/mL)
VAVVLM was tested, and the “fold change of barcode share” value was 0.00752 ± 0.0013.
For VDVVLM, the “fold change of barcode share” value was < 0.0121.
With VLAVLM the “fold change of barcode share” value was 0.0193 ± 0.011.
In the case of VLDVLM, the “fold change of barcode share” value is reported as < 0.00327.
With VLPVLM the “fold change of barcode share” value was 0.00852 ± 0.0065.
In the case of VLQVLM, the “fold change of barcode share” value is reported as 0.0126 ± 0.0088.
In the case of VLVALM, the “fold change of barcode share” value is reported as 0.00466 ± 0.0017.
For VLVDLM, the “fold change of barcode share” value was 0.00936 ± 0.0096.
With VLVPLM the “fold change of barcode share” value was 0.00436 ± 0.00063.
VLVQLM was tested, and the “fold change of barcode share” value was < 0.00283.
With VLVVAM the “fold change of barcode share” value was 0.0135 ± 0.0072.
With VLVVDM the “fold change of barcode share” value was 0.0226 ± 0.021.
VLVVLA was tested, and the “fold change of barcode share” value was < 0.0211.
In the case of VLVVLD, the “fold change of barcode share” value is reported as < 0.0192.
For ALVVLM, the “fold change of barcode share” value was 0.0091 ± 0.0035.
With WLVVLM the “fold change of barcode share” value was 0.0362 ± 0.036.
For QLVVLM, the “fold change of barcode share” value was 0.00629 ± 0.0024.
DLVVLM was tested, and the “fold change of barcode share” value was 0.00833 ± 0.003.
In the case of PLVVLM, the “fold change of barcode share” value is reported as < 0.00889.
With VLVVLM I226A the “fold change of barcode share” value was 0.0152 ± 0.015.
In the case of VLVVLM I226Q, the “fold change of barcode share” value is reported as < 0.00903.
With VLVVLM L153Q the “fold change of barcode share” value was 0.0105 ± 0.0014.
With VLVVLQ the “fold change of barcode share” value was 0.00978 ± 0.0056.
VLVVLW was tested, and the “fold change of barcode share” value was < 0.0185.
For VLVVPM, the “fold change of barcode share” value was 0.0212 ± 0.0089.
With VLVVQM the “fold change of barcode share” value was 0.0127 ± 0.0034.
With VLVVWM the “fold change of barcode share” value was < 0.0201.
For VLVWLM, the “fold change of barcode share” value was < 0.0026.
In the case of VLWVLM, the “fold change of barcode share” value is reported as 0.00461 ± 0.0028.
With VQVVLM the “fold change of barcode share” value was < 0.004.
In the case of VWVVLM, the “fold change of barcode share” value is reported as < 0.00665.

Variants of: B3
Test: as above
Details: with Escherichia coli (laboratory strain); antibiotic: carbenicillin; 2× MIC (3.1 µg/mL)
Method: as §1
For LAL, the “fold change of barcode share” value was 0.182 ± 0.049.
With LDL the “fold change of barcode share” value was 0.3 ± 0.082.
LPL was tested, and the “fold change of barcode share” value was 0.363 ± 0.0065.
LQL was tested, and the “fold change of barcode share” value was 0.256 ± 0.029.
LVA was tested, and the “fold change of barcode share” value was 0.237 ± 0.14.
LVD was tested, and the “fold change of barcode share” value was 0.415 ± 0.18.
For AVL, the “fold change of barcode share” value was 0.269 ± 0.086.
WVL was tested, and the “fold change of barcode share” value was 0.369 ± 0.12.
QVL was tested, and the “fold change of barcode share” value was 0.22 ± 0.092.
With DVL the “fold change of barcode share” value was 0.28 ± 0.11.

Same assay, conditions: with Escherichia coli (laboratory strain); antibiotic: gentamicin; 2× MIC (MIC 0.45 µg/mL)
In the case of LAL, the “fold change of barcode share” value is reported as 0.008061 ± 3.5e-05.
In the case of LDL, the “fold change of barcode share” value is reported as < 0.0057.
In the case of LPL, the “fold change of barcode share” value is reported as 0.00871 ± 0.00021.
With LQL the “fold change of barcode share” value was < 0.00899.
For LVA, the “fold change of barcode share” value was < 0.00787.
In the case of LVD, the “fold change of barcode share” value is reported as < 0.0101.
In the case of AVL, the “fold change of barcode share” value is reported as 0.00712 ± 0.00021.
WVL was tested, and the “fold change of barcode share” value was 0.00373 ± 0.0022.
In the case of QVL, the “fold change of barcode share” value is reported as 0.00376 ± 0.0024.
With DVL the “fold change of barcode share” value was < 0.00165.
